Experimental data reported in the supplement of paper PMC9135407.
Values joined by “and” are separate entries in the source; they are usually repeats but may differ in a detail not shown here. Identical values can stand only once. Counter-ions that a name gives are not always drawn. The whole screen tested about 5,800 compounds, of which about 620 (11%) showed activity.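 The calls were made as follows: active = score above a cut-off or among the top three wells of a plate; in these data no inactive exceeds 0.85.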 The list shows a part of the results, in another mix than the full data.

Test system: primary human hepatic stellate cells (donor 1)
Test: scaled lipid accumulation score (0 = DMSO-like, 1 = nortriptyline-like); higher = stronger HSC inactivation (lipid re-accumulation), active = hit call of the paper
Details: 48 h
[1] = library stock concentration: 6.3 mM
[2] = library stock concentration: 3.33 mM
[3] = library stock concentration: 10 mM
[4] = library stock concentration: 80 uM
[5] = library stock concentration: 400 uM
[6] = library stock concentration: 2 mM
[7] = library stock concentration: 1 mM

Structure (SMILES): CN(C)CCCN1c2ccccc2Sc2ccc(Cl)cc21 [Chlorpromazine]
- scaled lipid accumulation score [1]: active: 1.09

Structure (SMILES): CC(C)C[C@H](NC(=O)CNC(=O)c1cc(Cl)ccc1Cl)B1OC(=O)CC(CC(=O)O)(C(=O)O)O1 (stereo not given in full)
- scaled lipid accumulation score [2]: inactive: ≤ 0
- scaled lipid accumulation score [3]: inactive: 0.118

Structure (SMILES): N[C@@H](C(=O)O)c1ccc(O)c(C(=O)O)c1 [(R)-3-Carboxy-4-hydroxyphenylglycine]
- scaled lipid accumulation score [3]: inactive: ≤ 0

Structure (SMILES): CCn1cc(C(=O)O)c(=O)c2cc(F)c(N3CCNCC3)cc21 [Norfloxacin]
- scaled lipid accumulation score: inactive: ≤ 0
- scaled lipid accumulation score [1]: inactive: 0.007 and inactive: 0.004
- scaled lipid accumulation score [3]: inactive: ≤ 0

Structure (SMILES): CCn1cc(C(=O)O)c(=O)c2cc(F)c(N3CCNCC3)cc21
- scaled lipid accumulation score [3]: inactive: ≤ 0

Structure (SMILES): c1ccc(N2CCN(CCCOc3ccc4c(c3)OCO4)CC2)cc1 [BP 554 maleate]
- scaled lipid accumulation score [3]: inactive: ≤ 0

Structure (SMILES): CN(C)c1nc(N)c(C(=O)NC(=N)N)nc1Cl [5-(N,N-Dimethyl)amiloride hydrochloride]
- scaled lipid accumulation score [3]: inactive: ≤ 0

Structure (SMILES): CS(=O)(=O)O.Cc1ccc2c(c1)c1c3n2CCNC3CCC1 (stereo not given) [Pirlindole mesylate]
- scaled lipid accumulation score [3]: active: 0.93

Structure (SMILES): COc1c(O)cc2c(c1O)[C@@H]1O[C@H](CO)[C@@H](O)[C@H](O)[C@H]1OC2=O [Bergenin]
- scaled lipid accumulation score [2]: inactive: ≤ 0
- scaled lipid accumulation score [3]: inactive: ≤ 0

Structure (SMILES): COc1c(O)cc2c(c1O)[C@@H]1O[C@H](CO)[C@@H](O)[C@H](O)[C@H]1OC2=O [Bergenin monohydrate]
- scaled lipid accumulation score: inactive: 0.012

Structure (SMILES): COc1c(O)cc2c(c1O)[C@@H]1O[C@H](CO)[C@@H](O)[C@H](O)[C@H]1OC2=O
- scaled lipid accumulation score [3]: inactive: ≤ 0

Structure (SMILES): CCCCCC(=O)/C=C/C=C\C/C=C\C/C=C\CCCC(=O)O [15-Ketoicosatetraenoic acid]
- scaled lipid accumulation score (library stock concentration: 100 uM): inactive: ≤ -0.021

Structure (SMILES): CC(C)[C@H]1CC[C@H](C(=O)N[C@H](Cc2ccccc2)C(=O)O)CC1 [Nateglinide]
- scaled lipid accumulation score [2]: inactive: ≤ 0
- scaled lipid accumulation score [1]: inactive: ≤ 0
- scaled lipid accumulation score [3]: inactive: ≤ 0 and inactive: ≤ -0.027

Structure (SMILES): CC(C)[C@H]1CC[C@H](C(=O)N[C@H](Cc2ccccc2)C(=O)O)CC1 [nateglinide]
- scaled lipid accumulation score [1]: inactive: ≤ -0.006

Structure (SMILES): CC(C)[C@H]1CC[C@H](C(=O)N[C@H](Cc2ccccc2)C(=O)O)CC1
- scaled lipid accumulation score [3]: inactive: ≤ 0

Structure (SMILES): Nc1cccc(-c2cc3c(Oc4cccc(O)c4)ncnc3[nH]2)c1
- scaled lipid accumulation score [4]: inactive: 0.044
- scaled lipid accumulation score [5]: inactive: ≤ -0.001
- scaled lipid accumulation score [6]: inactive: 0.078
- scaled lipid accumulation score [2]: inactive: 0.101
- scaled lipid accumulation score [3]: inactive: 0.344 and inactive: 0.173

Structure (SMILES): COc1ccc(C(C)=O)c(O)c1 [Paeonol]
- scaled lipid accumulation score [2]: inactive: ≤ 0
- scaled lipid accumulation score [3]: inactive: ≤ 0

Structure (SMILES): CN1CCN(C2=Nc3cc(Cl)ccc3Nc3ccccc32)CC1 [Clozapine]
- scaled lipid accumulation score: active: 1

Structure (SMILES): COc1ccc(CCCOC(Cn2ccnc2)c2ccc(OC)cc2)cc1 (stereo not given)
- scaled lipid accumulation score [7]: inactive: 0.011
- scaled lipid accumulation score [3]: inactive: 0.486 and inactive: 0.065
- scaled lipid accumulation score (library stock concentration: 13.6 mM): inactive: 0.509

Structure (SMILES): COc1ccccc1OCCNCC(O)COc1cccc2[nH]c3ccccc3c12 (stereo not given) [Carvedilol tartrate]
- scaled lipid accumulation score [3]: inactive: 0.276

Structure (SMILES): COc1ccccc1OCCNCC(O)COc1cccc2[nH]c3ccccc3c12 (stereo not given) [Carvedilol]
- scaled lipid accumulation score [2]: inactive: ≤ 0
- scaled lipid accumulation score (library stock concentration: 4.9 mM): inactive: 0.302 and inactive: 0.4

Structure (SMILES): CC(C)c1nc(CN(C)C(=O)N[C@H](C(=O)N[C@@H](Cc2ccccc2)C[C@H](O)[C@H](Cc2ccccc2)NC(=O)OCc2cncs2)C(C)C)cs1 [Ritonavir]
- scaled lipid accumulation score [2]: inactive: ≤ 0
- scaled lipid accumulation score [3]: inactive: ≤ 0

Structure (SMILES): CC(C)c1nc(CN(C)C(=O)N[C@H](C(=O)N[C@@H](Cc2ccccc2)C[C@H](O)[C@H](Cc2ccccc2)NC(=O)OCc2cncs2)C(C)C)cs1
- scaled lipid accumulation score [3]: inactive: 0.007

Structure (SMILES): CCCOC(=O)c1c(-c2ccccc2)nc(CC)c(C(=O)SCC)c1CCC
- scaled lipid accumulation score [3]: inactive: 0.289

Structure (SMILES): COc1cc(N2CCC(N3CCN(C)CC3)CC2)ccc1Nc1ncc(Cl)c(Nc2ccccc2S(=O)(=O)C(C)C)n1
- scaled lipid accumulation score [4]: inactive: ≤ 0
- scaled lipid accumulation score [5]: inactive: 0.087
- scaled lipid accumulation score [6]: inactive: 0.571
- scaled lipid accumulation score [3]: inactive: 0.613

Structure (SMILES): O=C(NCC1CCCCN1)c1cc(OCC(F)(F)F)ccc1OCC(F)(F)F (stereo not given) [Flecainide acetate]
- scaled lipid accumulation score: inactive: ≤ 0
- scaled lipid accumulation score [3]: inactive: 0.398
- scaled lipid accumulation score (library stock concentration: 10.6 mM): inactive: 0.436

Structure (SMILES): O=C(NCC1CCCCN1)c1cc(OCC(F)(F)F)ccc1OCC(F)(F)F (stereo not given) [Flecainide]
- scaled lipid accumulation score (library stock concentration: 4.8 mM): inactive: ≤ -0.006

Structure (SMILES): CC1CCc2cc(F)cc3c(=O)c(C(=O)O)cn1c23 (stereo not given) [Flumequine]
- scaled lipid accumulation score: inactive: 0.005
- scaled lipid accumulation score [2]: inactive: ≤ 0
- scaled lipid accumulation score (library stock concentration: 7.7 mM): inactive: 0.01
- scaled lipid accumulation score [3]: inactive: ≤ -0.001 and inactive: ≤ 0

Structure (SMILES): CCCC[C@H](C)C[C@H](O)/C=C/[C@H]1[C@H](O)CC(=O)[C@@H]1CCCC/C=C/C(=O)O [Limaprost]
- scaled lipid accumulation score [7]: inactive: ≤ 0

Structure (SMILES): CCCCOc1ccc(OCCCN2CCOCC2)cc1 [Pramoxine hydrochloride]
- scaled lipid accumulation score: inactive: 0.083
- scaled lipid accumulation score (library stock concentration: 6.1 mM): inactive: 0.261
- scaled lipid accumulation score [3]: inactive: 0.068
